Measured values published in paper PMC9911399, “Two distinct binding modes provide the RNA-binding protein RbFox with extraordinary sequence specificity”.
Where a chain is given by its changes, count along the chain named. The list shows a part of the results.

T1: RBFOX1 RRM (Homo sapiens, UniProt Q9NWB1 109-208)
T1 sequence: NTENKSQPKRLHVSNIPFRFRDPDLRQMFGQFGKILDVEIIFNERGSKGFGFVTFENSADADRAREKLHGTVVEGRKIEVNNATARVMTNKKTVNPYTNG

B1: GUUUUUG (DNA:RNA)
RNA: GGGAGACCGGAAUUCAGAUUGUCCGUUUUUGUUAAAUCCCGUCGUAGCCACCA
DNA 1: CAATCTGAATTCCGGTCTCCC
DNA 2: TGGTGGCTACGACGGGATT
B2: AGCUUUC (DNA:RNA)
RNA: B1 RNA with G25A, U26G, U27C, G31C
DNA 1: CAATCTGAATTCCGGTCTCCC
DNA 2: TGGTGGCTACGACGGGATT
B3: CGAGAAC (DNA:RNA)
RNA: GGGAGACCGGAAUUCAGAUUGUCCCGAGAACUUAAAUCCCGUCGUAGCCACCA
DNA 1: CAATCTGAATTCCGGTCTCCC
DNA 2: TGGTGGCTACGACGGGATT
B4: GCCCGUG (DNA:RNA)
RNA: B1 RNA with U26C, U27C, U28C, U29G
DNA 1: CAATCTGAATTCCGGTCTCCC
DNA 2: TGGTGGCTACGACGGGATT
B5: GCGGAUC (DNA:RNA)
RNA: B3 RNA with C25G, G26C, A27G, A30U
DNA 1: CAATCTGAATTCCGGTCTCCC
DNA 2: TGGTGGCTACGACGGGATT
B6: AGGAUCA (DNA:RNA)
RNA: B3 RNA with C25A, A27G, G28A, A29U, A30C, C31A
DNA 1: CAATCTGAATTCCGGTCTCCC
DNA 2: TGGTGGCTACGACGGGATT
B7: GUCGGGA (DNA:RNA)
RNA: B1 RNA with U27C, U28G, U29G, U30G, G31A
DNA 1: CAATCTGAATTCCGGTCTCCC
DNA 2: TGGTGGCTACGACGGGATT
B8: UCCAAGA (DNA:RNA)
RNA: B3 RNA with C25U, G26C, A27C, G28A, A30G, C31A
DNA 1: CAATCTGAATTCCGGTCTCCC
DNA 2: TGGTGGCTACGACGGGATT
B9: CCCUGGC (DNA:RNA)
RNA: B3 RNA with G26C, A27C, G28U, A29G, A30G
DNA 1: CAATCTGAATTCCGGTCTCCC
DNA 2: TGGTGGCTACGACGGGATT
B10: AUAGGCC (DNA:RNA)
RNA: B3 RNA with C25A, G26U, A29G, A30C
DNA 1: CAATCTGAATTCCGGTCTCCC
DNA 2: TGGTGGCTACGACGGGATT
B11: AUCCUCA (DNA:RNA)
RNA: B1 RNA with G25A, U27C, U28C, U30C, G31A
DNA 1: CAATCTGAATTCCGGTCTCCC
DNA 2: TGGTGGCTACGACGGGATT
B12: GCUCUGU (DNA:RNA)
RNA: B1 RNA with U26C, U28C, U30G, G31U
DNA 1: CAATCTGAATTCCGGTCTCCC
DNA 2: TGGTGGCTACGACGGGATT
B13: AAGAUCG (DNA:RNA)
RNA: B1 RNA with G25A, U26A, U27G, U28A, U30C
DNA 1: CAATCTGAATTCCGGTCTCCC
DNA 2: TGGTGGCTACGACGGGATT
B14: GCCCCGU (DNA:RNA)
RNA: B1 RNA with U26C, U27C, U28C, U29C, U30G, G31U
DNA 1: CAATCTGAATTCCGGTCTCCC
DNA 2: TGGTGGCTACGACGGGATT
B15: GUUGGUU (DNA:RNA)
RNA: B1 RNA with U28G, U29G, G31U
DNA 1: CAATCTGAATTCCGGTCTCCC
DNA 2: TGGTGGCTACGACGGGATT
B16: CCACGUG (DNA:RNA)
RNA: B3 RNA with G26C, G28C, A29G, A30U, C31G
DNA 1: CAATCTGAATTCCGGTCTCCC
DNA 2: TGGTGGCTACGACGGGATT
B17: GUGCGAC (DNA:RNA)
RNA: B3 RNA with C25G, G26U, A27G, G28C, A29G
DNA 1: CAATCTGAATTCCGGTCTCCC
DNA 2: TGGTGGCTACGACGGGATT
B18: AUGCUAA (DNA:RNA)
RNA: B1 RNA with G25A, U27G, U28C, U30A, G31A
DNA 1: CAATCTGAATTCCGGTCTCCC
DNA 2: TGGTGGCTACGACGGGATT
B19: CCGUACU (DNA:RNA)
RNA: B3 RNA with G26C, A27G, G28U, A30C, C31U
DNA 1: CAATCTGAATTCCGGTCTCCC
DNA 2: TGGTGGCTACGACGGGATT
B20: UUCUGUG (DNA:RNA)
RNA: B1 RNA with G25U, U27C, U29G
DNA 1: CAATCTGAATTCCGGTCTCCC
DNA 2: TGGTGGCTACGACGGGATT
B21: AGUCUCU (DNA:RNA)
RNA: B1 RNA with G25A, U26G, U28C, U30C, G31U
DNA 1: CAATCTGAATTCCGGTCTCCC
DNA 2: TGGTGGCTACGACGGGATT
B22: CGUCAUU (DNA:RNA)
RNA: B3 RNA with A27U, G28C, A30U, C31U
DNA 1: CAATCTGAATTCCGGTCTCCC
DNA 2: TGGTGGCTACGACGGGATT
B23: UACAGUU (DNA:RNA)
RNA: B1 RNA with G25U, U26A, U27C, U28A, U29G, G31U
DNA 1: CAATCTGAATTCCGGTCTCCC
DNA 2: TGGTGGCTACGACGGGATT
B24: UUUAGCA (DNA:RNA)
RNA: B1 RNA with G25U, U28A, U29G, U30C, G31A
DNA 1: CAATCTGAATTCCGGTCTCCC
DNA 2: TGGTGGCTACGACGGGATT
B25: UGGCAUU (DNA:RNA)
RNA: B3 RNA with C25U, A27G, G28C, A30U, C31U
DNA 1: CAATCTGAATTCCGGTCTCCC
DNA 2: TGGTGGCTACGACGGGATT
B26: ACGGCAG (DNA:RNA)
RNA: B3 RNA with C25A, G26C, A27G, A29C, C31G
DNA 1: CAATCTGAATTCCGGTCTCCC
DNA 2: TGGTGGCTACGACGGGATT
B27: UAUUUGG (DNA:RNA)
RNA: B1 RNA with G25U, U26A, U30G
DNA 1: CAATCTGAATTCCGGTCTCCC
DNA 2: TGGTGGCTACGACGGGATT
B28: CACUACC (DNA:RNA)
RNA: B3 RNA with G26A, A27C, G28U, A30C
DNA 1: CAATCTGAATTCCGGTCTCCC
DNA 2: TGGTGGCTACGACGGGATT
B29: UUAAGCA (DNA:RNA)
RNA: B3 RNA with C25U, G26U, G28A, A29G, A30C, C31A
DNA 1: CAATCTGAATTCCGGTCTCCC
DNA 2: TGGTGGCTACGACGGGATT
B30: GCUACUA (DNA:RNA)
RNA: B1 RNA with U26C, U28A, U29C, G31A
DNA 1: CAATCTGAATTCCGGTCTCCC
DNA 2: TGGTGGCTACGACGGGATT
B31: AUAAGCU (DNA:RNA)
RNA: B3 RNA with C25A, G26U, G28A, A29G, A30C, C31U
DNA 1: CAATCTGAATTCCGGTCTCCC
DNA 2: TGGTGGCTACGACGGGATT

target: T1, RBFOX1 RRM; experiment: EMSA; HiTS-Eq, 1 nM pool, 10 min; buffer printed only for the single-RNA assays: 10 mM Tris pH 7.5, 150 mM NaCl, 3.4 mM EDTA, 0.001% NP-40, 30 C; conditions: tags: His6 N-terminal (pET28a); label: 5' 32P
Outline: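 Purified wild-type or mutant RbFox RRM at increasing concentrations was equilibrated with 1 nM of 5′-radiolabelled RNA carrying 7 randomized nucleotides for 10 min in 50 µL. Unbound RNA was separated by 8% native PAGE and sequenced. Relative association constants came from read-count changes of each RNA species compared with the control reaction, normalised to the cognate motif.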

| Binder | binding signal |
| --- | --- |
| B1 | 0.0228 KA relative to UGCAUGU |
| B2 | 0.0108 KA relative to UGCAUGU |
| B3 | 0.00543 KA relative to UGCAUGU |
| B4 | 0.0203 KA relative to UGCAUGU |
| B5 | 0.00958 KA relative to UGCAUGU |
| B6 | 0.0143 KA relative to UGCAUGU |
| B7 | 0.0117 KA relative to UGCAUGU |
| B8 | 0.00589 KA relative to UGCAUGU |
| B9 | 0.011 KA relative to UGCAUGU |
| B10 | 0.0113 KA relative to UGCAUGU |
| B11 | 0.0013 KA relative to UGCAUGU |
| B12 | 0.0217 KA relative to UGCAUGU |
| B13 | 0.00962 KA relative to UGCAUGU |
| B14 | 0.00966 KA relative to UGCAUGU |
| B15 | 0.028 KA relative to UGCAUGU |
| B16 | 0.00523 KA relative to UGCAUGU |

| Binder | binding signal |
| --- | --- |
| B17 | 0.00787 KA relative to UGCAUGU |
| B18 | 0.00584 KA relative to UGCAUGU |
| B19 | 0.00471 KA relative to UGCAUGU |
| B20 | 0.0272 KA relative to UGCAUGU |
| B21 | 0.00785 KA relative to UGCAUGU |
| B22 | 0.0039 KA relative to UGCAUGU |
| B23 | 0.00538 KA relative to UGCAUGU |
| B24 | 0.0109 KA relative to UGCAUGU |
| B25 | 0.0198 KA relative to UGCAUGU |
| B26 | 0.0109 KA relative to UGCAUGU |
| B27 | 0.0139 KA relative to UGCAUGU |
| B28 | 0.00251 KA relative to UGCAUGU |
| B29 | 0.00809 KA relative to UGCAUGU |
| B30 | 0.00943 KA relative to UGCAUGU |
| B31 | 0.00275 KA relative to UGCAUGU |
